Measured values published in PubChem BioAssay AID1159614 (National Center for Advancing Translational Sciences (NCATS), 2016).
Screen size: about 45,000 compounds; about 65 (0.1%) were called active. The call rests on the fitted dose curve; in most records, active means well fitted activation curve with a large enough effect; inconclusive means small, poorly fitted or top-dose-only effect; inactive means no such curve, though single readings can be large or run the other way. This is one part of the list.

biological target: Galactocerebrosidase (Homo sapiens) (UniProt P54803); assay: A Novel Cell-Based Assay to Identify Small Molecules for B -Galactocerebrosidase; conditions: 145M-Twi-hGALC-G270D cells (Twitcher mouse brain line with human GALC G270D), HMU-beta-Gal fluorescence, 48 h; series mostly up to 57.5 µM; activation: at the top concentration; further: 0% is about no effect; nearly all actives have a fitted effect of over 65% in size
Procedure, shortened: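 Mutant human GALC (G270D), stably expressed in a Twitcher mouse brain cell line lacking endogenous GALC, is measured in live-treated cells via 6-hexadecanoylamino-4-methylumbelliferyl-β-galactoside hydrolysis (0.1 mM final, pH 5.2) with fluorescent detection.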

UniProt P54803, sequence (P54803 whole entry, looked up): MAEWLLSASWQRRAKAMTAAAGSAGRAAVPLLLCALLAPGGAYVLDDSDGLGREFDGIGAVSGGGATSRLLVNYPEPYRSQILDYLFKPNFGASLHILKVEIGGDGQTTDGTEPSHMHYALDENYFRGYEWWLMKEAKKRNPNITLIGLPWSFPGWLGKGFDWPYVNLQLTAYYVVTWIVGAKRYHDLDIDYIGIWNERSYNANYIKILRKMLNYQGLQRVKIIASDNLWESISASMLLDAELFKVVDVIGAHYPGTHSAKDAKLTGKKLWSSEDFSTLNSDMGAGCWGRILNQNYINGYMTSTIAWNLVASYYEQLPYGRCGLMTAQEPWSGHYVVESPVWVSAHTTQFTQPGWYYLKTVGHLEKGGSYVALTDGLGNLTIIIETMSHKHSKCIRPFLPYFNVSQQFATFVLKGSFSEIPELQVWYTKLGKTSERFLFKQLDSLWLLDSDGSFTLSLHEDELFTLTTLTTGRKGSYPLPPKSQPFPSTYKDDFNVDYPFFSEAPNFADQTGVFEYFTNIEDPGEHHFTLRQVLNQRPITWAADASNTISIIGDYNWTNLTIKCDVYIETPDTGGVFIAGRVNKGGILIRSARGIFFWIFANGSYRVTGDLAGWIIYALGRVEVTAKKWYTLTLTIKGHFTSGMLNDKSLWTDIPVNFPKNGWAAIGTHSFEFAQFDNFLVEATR

Structure (SMILES) | activation
COc1cc(OC)c(NC(=O)Nc2c(C)n(C)n(-c3ccccc3)c2=O)cc1Cl | inactive: -8.58%
CCc1cc2c(-c3ccccc3)cc(=O)oc2c2c1OCN(Cc1ccc(F)cc1)C2 | inactive: -21.9%
O=C(NC1CC(=O)N(c2cccc(F)c2)C1)C(c1ccccc1)c1ccccc1 (stereo not drawn) | inactive: -1.91%
CCCN1CCN(c2cc3c(cc2F)c(=O)c(S(=O)(=O)c2ccc(Cl)cc2)cn3C)CC1 | inactive: -14.6%
COc1ccc(C(=O)NCC(c2ccc(N(C)C)cc2)N2CCc3ccccc32)cc1 (stereo not drawn) | inactive: -13.9%
Cn1c(=O)n(C)c2cc(N3CCOCC3)c(NC(=O)c3c(F)cccc3F)cc21 | inactive: -14%
Cc1cc(C)c2sc(NC(=O)c3ccc(S(=O)(=O)N4CCOCC4)cc3)nc2c1 | inactive: -4.49%
CCC1C(=O)OCC1Cc1cncn1C (stereo not drawn) | inactive: -8.96%
CCC(Oc1ccccc1)C(=O)Nc1ccc(OCc2cc(=O)n3ccccc3n2)cc1 (stereo not drawn) | inactive: -5.48%
CCOc1ccc(CNC(=O)C2Cc3ccccc3N2C(=O)CC)cc1 (stereo not drawn) | inactive: -21.6%
COC(=O)c1ccccc1NC(=O)c1ccc2c(=O)n3c(nc2c1)CCCCC3 | inactive: -4.41%
O=S(=O)(c1ccc(Cl)cc1)c1nc(-c2ccccc2)oc1N1CCN(c2ccccc2)CC1 | inactive: -13.9%
O=C(Nc1ccc(Br)cc1)c1cccc(C(=O)Nc2ccc(Br)cc2)c1 | inactive: -11.5%
NC(=O)c1ncn([C@@H]2O[C@H](CO)[C@@H](O)[C@H]2O)c1O | inactive: 14.6%
O=C(CN1C=NS(=O)(=O)c2ccc(C(F)(F)F)cc21)Nc1cccc(C(F)(F)F)c1 | inactive: 2.25%
COc1ccc(Nc2c3c(nc4ccc(NC(=O)/C=C/c5cccc(OC)c5OC)cc24)CCCC3)cc1OC | inactive: -23.5%
CCOC(=O)c1cc(NC(=O)c2ccc(Cl)cc2)c(=O)n2c1oc1ccccc12 | inactive: 0.877%
Cc1ccc(CNC(=O)Cn2c(=O)n(Cc3ccccc3)c(=O)c3sc4ccccc4c32)cc1 | inactive: -6.47%
Cc1ccc(CN(Cc2cccn2-c2nnc(N3CCCC3=O)s2)C(=O)Nc2ccccc2C(F)(F)F)cc1 | inactive: -6.94%
COc1ccccc1N1CCN(C(=O)CN2C(=O)COc3ccc(S(=O)(=O)N4CCCC4)cc32)CC1 | inactive: -1.76%
CCOc1ccc(C2CC(=O)c3c([nH]c(C(=O)OC4CCC(C)CC4)c3C)C2)cc1 (stereo not drawn) | inactive: -20.2%
CCc1cccc(NC(=O)CSc2nc3ccsc3c(=O)n2CC)c1 | inactive: -15.5%
CCn1c(/C(C#N)=C/c2ccccc2Cl)nc2ccccc21 | inactive: -23.6%
CCc1nc(SCc2cc(=O)c3cc(C)ccc3[nH]2)n[nH]1 | inactive: -4.78%

Structure (SMILES) | activation
Cc1ccc(C(C)C)cc2c(C)ccc1-2 | inactive: -16.8%
COc1ccc(CNC(=O)c2cccc(N3CCCS3(=O)=O)c2)cc1OC | inactive: -16%
Cc1c(C(=O)N(Cc2cccc(F)c2)C2CCS(=O)(=O)C2)oc2cc(Br)ccc12 (stereo not drawn) | inactive: -22.5%
O=c1cc(-c2ccc(F)cc2)nc(SCc2nc(-c3cccc(C(F)(F)F)c3)no2)[nH]1 | inactive: -4.59%
COc1ccc(NC(=O)CN2C(=O)C3(SCC(=O)N3c3ccccc3)c3ccccc32)cc1Cl (stereo not drawn) | inactive: -16.6%
CCOC(=O)c1c(C)c(-c2ccccc2)n(CC(=O)NC2CCCCCC2)c1C | inactive: -12.4%
CC(C)=CCC/C(C)=C/CC/C(C)=C/CCC(=O)OC/C=C(\C)CCC=C(C)C | inactive: -7.3%
CCn1c(=NC(=O)c2ccc(S(=O)(=O)N3CCCC3)cc2)sc2cc(Br)ccc21 | inactive: 4.58%
CC(C)c1ccc(NC(=O)c2ccc(Cn3nc(N4CCN(c5ccccc5)CC4)ccc3=O)o2)cc1 | inactive: -2.87%
O=C(Cn1ncn2nc(-c3cccs3)cc2c1=O)NCc1ccccc1Cl | inactive: -16.2%
COc1cccc(NC(=O)Cn2cc(C(=O)c3ccc(F)cc3)c(=O)c3cc(OC)ccc32)c1 | inactive: -20.6%
CCc1oc2ccccc2c1C(=O)c1cc(I)c(O)c(I)c1 | inactive: -7.11%
Cc1cccc(Cn2cnc3c(oc4ccccc43)c2=O)c1 | inactive: -15.1%
C=CCc1ccc(OCc2ccc(C(=O)Nc3ccc(NC(C)=O)cc3)o2)c(OC)c1 | inactive: -20.2%
Cc1ccc(C)c(N2C(=O)N(C)c3ccccc3S2(=O)=O)c1 | inactive: -3.81%
COC(=O)c1c(NC(=O)c2nc(SCc3ccccc3C)ncc2Cl)sc2c1CCCC2 | inactive: -12.8%
COc1ccc(-n2c(C)nc3cc(C(=O)NC4CCCCCC4)ccc32)cc1 | inactive: -19.9%
CCCN(CCC)CCNC(=O)c1sc2nc3n(c(=O)c2c1C)CCCCC3 | inactive: -9.04%
CC1CCCN(S(=O)(=O)c2ccc(N3CCCCS3(=O)=O)cc2)C1 (stereo not drawn) | inactive: 3.58%
COc1ccc(-c2c(C)nn3c(N4CCN(c5ccccc5F)CC4)cc(C)nc23)cc1OC | inactive: -18.3%
CCc1c(C)sc2c1CCN(C(=O)Nc1cc(C)ccc1OC)C2c1ccc(F)cc1 (stereo not drawn) | inactive: -16.4%
Cc1ccc(NS(=O)(=O)c2ccc3[nH]c4c(c3c2)CCCCCC4)cc1 | inactive: -5.35%
CCN1CCN(C(c2ccccc2F)c2c(O)cc(C)n(CCOC)c2=O)CC1 (stereo not drawn) | inactive: -6.39%
N#Cc1ccc(NC2=NS(=O)(=O)c3ccccc32)cc1 | inactive: -24.4%
